Results from paper PMC8959893, “T-Cell Responses to Immunodominant Listeria Epitopes Limit Vaccine-Directed Responses to the Colorectal Cancer Antigen, Guanylyl Cyclase C” (Frontiers in Immunology, 2022).

Test system: GUCY2C254-262-specific T-cells
Assay: IFNγ ELISpot: recognition of altered peptides by splenocytes of mice primed with Ad5-GUCY2C
Conditions: splenocytes of mice immunized with Ad5-GUCY2C, 10 ug/mL peptide, 24 h at 37°C, Figure 4B

Substance: GUCY2CF255Y: GUCY2C254-262 peptide variant with F255Y point mutation at an H-2K^d anchoring residue (SYYDVKGDL; UniProt Q3UWA6 254-262, looked up, variant F255Y)
- Peptide recognition by GUCY2C254-262-specific CD8+ T-cells relative to native GUCY2C254-262 peptide: equivalent

Substance: GUCY2CV258S: GUCY2C254-262 peptide variant with V258S point mutation at an H-2K^d anchoring residue (SFYDSKGDL; UniProt Q3UWA6 254-262, looked up, variant V258S)
- Peptide recognition by GUCY2C254-262-specific CD8+ T-cells relative to native GUCY2C254-262 peptide: poorly recognized
